The values that follow come from paper PMC7819943, “Rice protein-binding microarrays: a tool to detect cis-acting elements near promoter regions in rice”.

Some of the results follow.

The target of this experiment is T1, OsWOX13 (Oryza sativa, UniProt Q5QMM3 1-267).
T1 sequence: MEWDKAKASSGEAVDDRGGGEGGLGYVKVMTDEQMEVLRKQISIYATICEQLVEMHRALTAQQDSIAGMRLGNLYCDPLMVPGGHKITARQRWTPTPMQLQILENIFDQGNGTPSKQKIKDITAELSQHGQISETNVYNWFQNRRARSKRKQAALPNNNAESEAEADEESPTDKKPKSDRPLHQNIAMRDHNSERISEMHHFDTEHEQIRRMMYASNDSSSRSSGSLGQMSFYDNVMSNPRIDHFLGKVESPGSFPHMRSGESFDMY
In words: protein-binding microarray (RPBM); PBS, 2% BSA, 51.3 ng/ul salmon testes DNA, 50 uM zinc acetate, 200 nM TF, 25 C, 1 h; high values mean tight binding. The note with it: protein: recombinant; tags: N-terminal polyhistidine and DsRed monomer fusion (pET32a); label: CyDye5-dUTP incorporated in the synthesized complementary strand; 3' TTTTT single-stranded linker to array surface; dsDNA, one strand shown. Summed up: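 Binding signal is reported as fluorescence intensity per feature (arbitrary units) from an Axon 4000B scanner. Incubation used 200 nM of each Ni–NTA-purified, N-terminally polyhistidine- and DsRed-fused transcription factor from E. coli BL21-CodonPlus on a double-stranded custom Agilent array for 1 h at 25 °C, with 50 µM zinc acetate in the buffer, followed by washing.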
With “AATTCGATTGGTATTCACAAATCACACATTCACGCTTGCTCGGAGTCACCTAGTGCAG”, the binding signal was 8900 fluorescence intensity (a.u.).
“GCTGACTGATGACGGCGACGTCGGGAGGATGGAGAACGACCGGAGTCACCTAGTGCAG”: the binding signal was 20100 fluorescence intensity (a.u.).
For the sequence “ACTAAACTTTTAATTTTGGTGTGAACTAAACACAGCCTAACGGAGTCACCTAGTGCAG”, the binding signal is 9440 fluorescence intensity (a.u.).
As for “AGCATAGAGACAGAGATGATTATTGTATCGCTATCAGCACCGGAGTCACCTAGTGCAG”, the figure is 4510 fluorescence intensity (a.u.).
With “AAGACAGAGTCAAATTAGCCACGTAGGTGCCACGTCAGCCCGGAGTCACCTAGTGCAG”, the binding signal was 5730 fluorescence intensity (a.u.).
For the sequence “GTACTTAATGAATTATAACAAAATACGAGTCGTTCCGTTCCGGAGTCACCTAGTGCAG”, the binding signal is 7360 fluorescence intensity (a.u.).
The value for “ATAAATAACTTTGATATAAATTGTTTGAATAAAACTAATGCGGAGTCACCTAGTGCAG” was 14300 fluorescence intensity (a.u.).
Consider “ACAATAATTAATACTTCAATTAATCATACTCAAGGTACAACGGAGTCACCTAGTGCAG”, for which the binding signal was 41200 fluorescence intensity (a.u.).
In the case of “CGGGGAAATTTAACTTAACTCGTGATCAAGAGTTATATAGCGGAGTCACCTAGTGCAG”, the binding signal was 3530 fluorescence intensity (a.u.).
As for “CGATCTAATTGTGAATCCTCTACCCTAGAGGACCTCCTATCGGAGTCACCTAGTGCAG”, the figure is 4020 fluorescence intensity (a.u.); as for “AATAACATTGATGTAATTAATCACTGATTTTGAAAAGAATCGGAGTCACCTAGTGCAG”, 12400 fluorescence intensity (a.u.).
On to “TCCCAATTAAGTCAATCAGTAATAATAAATAATTATGAACCGGAGTCACCTAGTGCAG”, for which the binding signal is 32500 fluorescence intensity (a.u.).
“TTATATAATTGTCATGATGAATTACTGCCTTGTCATCTGACGGAGTCACCTAGTGCAG”: the binding signal was 30000 fluorescence intensity (a.u.).
“ATATAACTGATCTCCGAAAATTTTGTATATGGATTTGCGTCGGAGTCACCTAGTGCAG”: the binding signal is 14800 fluorescence intensity (a.u.).
With “CTCCCGTGCAGTTGCCAGTTGATTGGTTCAGCGTGGCTGCCGGAGTCACCTAGTGCAG”, the binding signal is 9720 fluorescence intensity (a.u.).
For “TCCTAAATTTAGCAACTTGTCAGGACACAAACTACAAGAACGGAGTCACCTAGTGCAG”, the binding signal is 6420 fluorescence intensity (a.u.).
As for “GCCTGATGTGTTGATGTGCTGCTGTTCAGACTTTGAACCTCGGAGTCACCTAGTGCAG”, the figure is 5170 fluorescence intensity (a.u.); as for “TGATGATAGGCTTTGATCCCTAGAGCTTAATTCACTCCAGCGGAGTCACCTAGTGCAG”, 4770 fluorescence intensity (a.u.); as for “TCCTTGATTGTTATACCTCTTCTCTTCTTATTAATACATGCGGAGTCACCTAGTGCAG”, 35600 fluorescence intensity (a.u.).
“TCCAATCAACAATGTGAACTCGCTAACACCATTCTAGTAGCGGAGTCACCTAGTGCAG”: the binding signal is 6300 fluorescence intensity (a.u.).
As for “TGTCTTATTTAATAATTTTCTATGATTAATATTTTGTTATCGGAGTCACCTAGTGCAG”, the figure is 11300 fluorescence intensity (a.u.); as for “CAGCTTCAGATTAATAAATCATTGAAATTTTCTTTTCTGGCGGAGTCACCTAGTGCAG”, 4340 fluorescence intensity (a.u.).
With “TATGATTCTTTTCTAAAAGATTGATACGACATATCAATATCGGAGTCACCTAGTGCAG”, the binding signal is 5300 fluorescence intensity (a.u.).
In the case of “ATGATAGATTTGTTCTGAGGAGAGGAAATAGCTAGGTACCCGGAGTCACCTAGTGCAG”, the binding signal was 28500 fluorescence intensity (a.u.).
As for “ACTTGATAGTAATTAAGTATAAATTATTACAAACTATAAACGGAGTCACCTAGTGCAG”, the figure is 16200 fluorescence intensity (a.u.).
“TTCATATTGATATTGATGTTAATGAATTCAGTTAATATAACGGAGTCACCTAGTGCAG”: the binding signal is 5440 fluorescence intensity (a.u.).
Take “CTAAAAGTCAAATTTGATCATACATATTTATGGAGTAATACGGAGTCACCTAGTGCAG”: the binding signal was 3530 fluorescence intensity (a.u.).
As for “GGTATTAACTGGCAACTGGCAAGCAGGTAGTAGTACTATTCGGAGTCACCTAGTGCAG”, the figure is 4180 fluorescence intensity (a.u.).
Turning to “TGATATCTAATTTGATATAGATTACTATAGAATGGATCAACGGAGTCACCTAGTGCAG”, the binding signal is 13200 fluorescence intensity (a.u.).
On to “ATAATTAACTATTTACCACTCTTATAAGTGATGATAAATTCGGAGTCACCTAGTGCAG”, for which the binding signal is 10400 fluorescence intensity (a.u.).
As for “TCCAAAATTATGGATGGGTTTTATTAATAGTCTGTGTTTACGGAGTCACCTAGTGCAG”, the figure is 7280 fluorescence intensity (a.u.); as for “TTTATGATTAGTACTTTTATTAGATGATAAAACTTGAATACGGAGTCACCTAGTGCAG”, 23800 fluorescence intensity (a.u.); as for “TGACGTGATTGAGCGCTGAGCTTTGTGCTGGACCGACGACCGGAGTCACCTAGTGCAG”, 33500 fluorescence intensity (a.u.).
“AGTTGATGATATTATGTGTTGTCCAAACAAGTACCTTAAGCGGAGTCACCTAGTGCAG”: the binding signal is 4390 fluorescence intensity (a.u.).
Consider “CTTAATTTATGTGATGATTGACATTTCATGTGGATGCTATCGGAGTCACCTAGTGCAG”, for which the binding signal is 45400 fluorescence intensity (a.u.).
“TTAAATTTTAAATTTAATACGAGTGTTTGCATTTATGGGTCGGAGTCACCTAGTGCAG”: the binding signal was 29500 fluorescence intensity (a.u.).
As for “TTTGATTAGAATTTCGAAGATTAAACAGTAAATTTAATCGCGGAGTCACCTAGTGCAG”, the binding signal is 37200 fluorescence intensity (a.u.).
On to “AACCCTAATTTATTCCCCTCCACCGCATCTAACACGCTAGCGGAGTCACCTAGTGCAG”, for which the binding signal was 14700 fluorescence intensity (a.u.).
In the case of “GTTAATGAATTTAGACATATATATATATATATGTTTAGATCGGAGTCACCTAGTGCAG”, the binding signal is 37700 fluorescence intensity (a.u.).
For the sequence “AGCAAGCTTAATTACAATCGTTGTATACGTTTGAAGACCCCGGAGTCACCTAGTGCAG”, the binding signal is 6960 fluorescence intensity (a.u.).
Regarding “CAACATTAGCAATTAAAATTGCGGGTTATTTGTAAAAGTCCGGAGTCACCTAGTGCAG”, the binding signal was 3710 fluorescence intensity (a.u.).
Regarding “TAGTAATTACTAGGGAGTTACCCACGATAAAATTTTCATGCGGAGTCACCTAGTGCAG”, the binding signal was 12800 fluorescence intensity (a.u.).
